The supplement of paper PMC12632987
Over roughly 4,500 sequences, “median log2 fold change of GCK-ALFA target abundance (FLAG IP / Myc IP barcode read proportion)” has its median near 0.078; the lowest 2% begin near -0.6. Some of the results follow.

B1: GBRAP_78_6667 (protein)
chain: EVEELVDKALEALGRAERLALELPEDLRNELLDLLVDAASYLLESEEEGFDLELLKKALEELKKALELVEEANNPELEPLRKELKEAIKLLEKAIKAKEE
B2: GBRAP_184_5142 (protein)
chain: TLLRVYIEARTVEEALAGARAAFEAARAAGARLALYVDAEGLSVEEVAELARALRALAAELGLPDAQIVLHVEADEEEADEILKAADAAGVRAVIALEEE
B3: GBRAP_153_3945 (protein)
chain: MEEREEKLERALELIEKIKETGGDPELIREFARLVKELSEEDKLKVARELNRLSEELVYKIFKVLATEEGFSVEELLAMTTELDLEHEAAALEAIVEAQK
B4: GBRAP_184_5291 (protein)
chain: KVKRVVIEAETEEEALKQINAAAEEAKAEGVKLELDLFLKNVSVEGFKKIAEKLKKLKDEGIIKDAIVDLLDERSEEEVDKFVEIADKAGIRLVVALSDE
B5: GBRAP_78_6666 (protein)
chain: ELEKIIDETLELLTEVIRASKSLPPEVQEAVLDEAVEAATELEEIEEEGPNLEELEEAIKHLEKLLELLEKNKSPELEPLIEKLKKQIEKLKKAKEELEK
B6: GBRAP_80_6798 (protein)
chain: AEERLKEALKRLEELDPEIAKRVKEIVEKAKSLGVSDEDLAEFVEAIVKLAEKDKEKAREIVEELEEDLEEEVERGNTANATAVIRVHAGDALLEVEELE
B7: GBRAP_11_2739 (protein)
chain: EKEKLKKIAELAEKAARLVEELIREGVDNEELLKEAEKALEELLKAVKEYGDEFLQKLAELAKEDFEKALEDPENAEEYLRNAAATLRVLEGQVLLKIEE
B8: GBRAP_52_6162 (protein)
chain: MEERAREYAERVLAAVRAGDEEELERLLREIAETLSEEEIELLLEIIAERVPELSPEDAERVVEAAIRLEDLGIEAGKNPELLSYQLARVAAAAYARLQA
B9: GBRAP_160_4422 (protein)
chain: GELVEEVREILEEGRELVVELVEEGEREEALAAARVTAGEVLLTVDSDERVSEEAEEEIDEILDETIETLEENPDASPEEVREILEEAEEEILEVLEEGL
B10: GBRAP_11_2936 (protein)
chain: SEEKLKKALELAEKAAKLLDKILEAGKLDPKLAKEARKYIEEAAKLAKKLGLEEVLKDLELAAELVKEILKAGKLDPTKAAAARALVFDAAEELEEELEK
B11: GBRAP_45_5810 (protein)
chain: SEELEKTLKELREALEKALELLEKELKEHPEEFKPILELLEEAKKLLEEDPYSLEAARRIRELLEEALKLALDSEKASAELLELLLEAVNLAAELEELLR
B12: GBRAP_52_6207 (protein)
chain: MEERARELAERLLALMRAGDEEGARALAREIARTWDDEELRVFFEAFVELARKAAPEDHDLVFRLAELLAEELLEEGRDEVLADDFLNAVAAALYENEQA
B13: GBRAP_14_3814 (protein)
chain: KEELIKEIEKILEELKKELVELLGLDEKEVKKLVEKAEKEIKEAILNEENPLEKVEEIMEKLKKEVAELAKKLGEDVAAAARALVTDAEHEILELIEKYK
B14: GBRAP_39_5671 (protein)
chain: EEEEEAEDVVSYLEGVAAKYLYETGKSLEEAYKEAVKILEKYAKEHPELKELLEELIKLAEEKGEEAKLVLIGVAVLIEEGTPDEEIKEYIELAIKYFKS
B15: GBRAP_166_4979 (protein)
chain: DQEERVEELKKYIKEQAEKAKTADYEEKLELLAEVAEKIREAKEEGLSEENFRELVRYTLEEFSKVGIKLSDVFGALSIIAELDEEEVELLLEEEKEVKA
B16: GBRAP_90_7011 (protein)
chain: SATEKKVEELKHREEVELELIDLGVVAARDDEELEYAMEILDEYNAAAATAILAVRELEPIIGKEEAEKFIEKIREAGNDVEKIKKLLKEAYEKAIKIAK
B17: GBRAP_128_3512 (protein)
chain: SMEEAVARARELMRAIGEADEEEARRLTRELVALIDAADDETAEAIADTAIELLPELSREKLEVVADTLEEERPRLSPLKANLVADIAVEALNLAEELEE
B18: GBRAP_160_4868 (protein)
chain: MEKLEKALKIIKEHEEEALEAVEEAPASDRAAIAAAIAGEAIQELIEEGLVSDELEDELMKVVDEMKAELEANADASVEEHKKIIKKAFEKMKKIVKEKM
B19: GBRAP_128_3468 (protein)
chain: STEEAVAYARELMAKIKEADDEEARELAEELAERLKTLTLEEVEAVVEEIEKRLPELSAEKLEILADVLRKALPKLTPEKAALVADVISDALLLAEELEE
B20: GBRAP_96_7093 (protein)
chain: EVEEAKKLIEELKENLDKNKEKAKELAKELSKYSDDVLEEALREVELTPEEVKKILEIFKEISLEEAERFALLIAEVLDSEVSQVALEYLKELEEEEDEE
B21: GBRAP_184_5046 (protein)
chain: EILEETIEVKDLEELKAKMAALREKVANIKGELILHVIAPEFTKEMVEALMKALKEILDEGYVTSVTVGLDGKMSEEVIDLAIELADKAGIKLVLALEEE
B22: GBRAP_160_4579 (protein)
chain: SEKLEKVEKAIKEAAEEVIKEVDKVSKEEVINILEVEFGAVILEALDEGLISYETAEKLLEIVDETVAKLKANPNLTPEEIKELIKEAEEKMIKTLKEDS
B23: GBRAP_52_6154 (protein)
chain: MEERAREYAERFVAAVKAGDEEEARAIMEEIAATLDDEEIALFLEHVAELVAGLSPEDRERVVEAVLEFEDIAEAAGHDPELLSYHTARVAGAAYAALQA
B24: GBRAP_184_5091 (protein)
chain: KTLEALVEAETFEEAKAKLKEVLATAAAQKANLTVLVDLKGLDVEEAIELIKLAGAAKAAGKVPDVTIGFANAFTEEEIDKILKAADEEGVKVVLPIKEE
B25: GBRAP_35_5564 (protein)
chain: DFSKTVAEMMANTIDALTEAVDDMDPAELLTITEQIMRAAKEVIEDIKDDKESLKLLLESLRRLRDAIEARGLDDPNLRAAAAAVEEAIELAEKAIAEAK
B26: GBRAP_160_4680 (protein)
chain: SEKVEEAKEFIDEEFAEVLALHDEMTPEQLAAAVRVAFGEIKLYLEELGLLTDEVEAVIDEEEARIVAYVLAHPDITREEFAALLEEAREEIVEELEKAE
B27: GBRAP_11_2812 (protein)
chain: MPEEQKKALEALREARELARRLIEEEPGNEELLEELLRKLEEALKLVKKHLSEAHKKDAEVALELARLALEDPENRLEYVRNTRAALDTLIANIEEELEE
B28: GBRAP_48_5838 (protein)
chain: SEEKKEKAIEEILEVIKRTAEELEEAKEEGLSEAAFEAILIDAAEEIKEILEKYLGLGEKFAALPLEEQLEIVRKAVEILKEEGEEAARKYIEEVIKELE
B29: GBRAP_160_4639 (protein)
chain: SPEVEELKEIIEEGTEIVLEEVDAGDLANALAALRVMVGEVVMEAVEDPRFSDEDVDRLDALGDAAVARFAAAEGASPEELKAIVEEAAEELKELVKSFF

Each binder was assayed against GABARAP, O95166 (assay: median log2 fold change of GCK-ALFA target abundance (FLAG IP / Myc IP barcode read proportion) (log2 ratio); each designed protein is fused to an ALFA-tag nanobody in HEK293 cells to bring the named protein to FLAG-tagged glucokinase (GCK); Myc marks an untargeted standard; higher = target protein stabilised (more abundant)). Conditions: target protein: 3xFLAG-MCP-GCK-ALFA reporter; HEK293 landing pad (RPLP).
GABARAP, O95166, sequence (O95166 whole entry, the tested form may be a part): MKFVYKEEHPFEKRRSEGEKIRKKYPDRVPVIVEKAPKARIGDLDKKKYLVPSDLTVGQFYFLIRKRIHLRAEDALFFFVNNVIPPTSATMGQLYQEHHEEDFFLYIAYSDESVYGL
Method in brief: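 The readout is target abundance, the per-binder median log2 ratio of FLAG to Myc barcode read proportions. It came from HEK293 landing-pad cells carrying a recombined ALFA-nanobody-fused binder library, induced with 2 μg mL^−1 doxycycline and transfected with a plasmid for a FLAG-tagged target and a Myc-tagged standard. After 48 h, lysates were immunoprecipitated with anti-FLAG and anti-Myc, and circular RNA barcodes were reverse transcribed, amplified and sequenced. Each barcode needed a proportion of at least 10^−7 in both replicates and each binder at least 3 barcodes per replicate, a pseudocount of 10^−6 was added, and the replicates were pooled.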

Q: B1 was tested. Which “median log2 fold change” value did it give?
A: 0.104

Q: How did the “median log2 fold change” value turn out when B2 was run?
A: -0.0391

Q: For B3, which “median log2 fold change” value is on record?
A: 0.142

Q: For B4, which “median log2 fold change” value is on record?
A: -0.0899

Q: For B5, which “median log2 fold change” value is on record?
A: 0.274

Q: With B6 as the binder, how does the “median log2 fold change” value read?
A: -0.212

Q: For B7, which “median log2 fold change” value is on record?
A: 0.259

Q: For B8, which “median log2 fold change” value is on record?
A: -0.0331

Q: B9 was tested. Which “median log2 fold change” value did it give?
A: -0.215

Q: How did the “median log2 fold change” value turn out when B10 was run?
A: -0.0697

Q: With B11 as the binder, how does the “median log2 fold change” value read?
A: 0.202

Q: With B12 as the binder, how does the “median log2 fold change” value read?
A: -0.0123

Q: For B13, which “median log2 fold change” value is on record?
A: 0.285

Q: With B14 as the binder, how does the “median log2 fold change” value read?
A: 0.283

Q: With B15 as the binder, how does the “median log2 fold change” value read?
A: 0.211

Q: How did the “median log2 fold change” value turn out when B16 was run?
A: 0.104

Q: How did the “median log2 fold change” value turn out when B17 was run?
A: 0.141

Q: How did the “median log2 fold change” value turn out when B18 was run?
A: 0.169

Q: With B19 as the binder, how does the “median log2 fold change” value read?
A: 0.145

Q: How did the “median log2 fold change” value turn out when B20 was run?
A: 0.247

Q: How did the “median log2 fold change” value turn out when B21 was run?
A: 0.0197

Q: For B22, which “median log2 fold change” value is on record?
A: -0.0902

Q: B23 was tested. Which “median log2 fold change” value did it give?
A: 0.0811

Q: How did the “median log2 fold change” value turn out when B24 was run?
A: 0.114

Q: Which “median log2 fold change” value does the source give for B25 here?
A: 0.0486

Q: How did the “median log2 fold change” value turn out when B26 was run?
A: -0.163

Q: For B27, which “median log2 fold change” value is on record?
A: 0.237

Q: Which “median log2 fold change” value does the source give for B28 here?
A: 0.0401

Q: For B29, which “median log2 fold change” value is on record?
A: -0.325
